Experimental data from paper PMC9767466.
No constants are given. Whether binding was seen depends on the method and setting. Some entries that bind do so weakly or less than the wild type. Sequences can lack the tags named with a protein.

How the values were obtained:
Test in all cases: two-hybrid; separate yeast two-hybrid method, as described in Luck et al., 2020; EROS against the NOX family and p22phox
[1] = molecular target: T1, p22phox, yeast two-hybrid fusion (method of Luck et al., 2020) (UniProt P13498)
T1 sequence: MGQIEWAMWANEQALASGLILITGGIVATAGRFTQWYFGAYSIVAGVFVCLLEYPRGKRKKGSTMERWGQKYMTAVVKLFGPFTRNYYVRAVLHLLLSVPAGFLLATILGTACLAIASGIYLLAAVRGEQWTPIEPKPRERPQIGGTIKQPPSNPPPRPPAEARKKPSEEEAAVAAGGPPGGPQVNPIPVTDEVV

[2] = molecular target: T2, NOX4, yeast two-hybrid fusion (method of Luck et al., 2020) (UniProt Q9NPH5)
T2 sequence: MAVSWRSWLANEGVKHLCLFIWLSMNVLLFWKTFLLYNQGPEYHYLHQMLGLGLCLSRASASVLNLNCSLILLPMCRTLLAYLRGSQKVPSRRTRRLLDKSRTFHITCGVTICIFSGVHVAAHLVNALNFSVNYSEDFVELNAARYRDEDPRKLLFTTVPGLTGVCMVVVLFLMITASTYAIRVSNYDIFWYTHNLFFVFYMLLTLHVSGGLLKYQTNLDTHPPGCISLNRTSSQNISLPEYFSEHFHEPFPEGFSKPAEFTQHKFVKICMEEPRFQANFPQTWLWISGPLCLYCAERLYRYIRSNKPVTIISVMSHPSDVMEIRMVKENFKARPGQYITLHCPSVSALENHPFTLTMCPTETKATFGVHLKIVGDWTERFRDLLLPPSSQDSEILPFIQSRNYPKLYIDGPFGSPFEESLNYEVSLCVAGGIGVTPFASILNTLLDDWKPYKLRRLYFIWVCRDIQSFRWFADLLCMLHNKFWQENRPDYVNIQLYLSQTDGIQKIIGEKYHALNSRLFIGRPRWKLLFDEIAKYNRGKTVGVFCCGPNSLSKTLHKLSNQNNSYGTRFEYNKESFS

[3] = molecular target: T3, NOX3, yeast two-hybrid fusion (method of Luck et al., 2020) (UniProt Q9HBY0)
T3 sequence: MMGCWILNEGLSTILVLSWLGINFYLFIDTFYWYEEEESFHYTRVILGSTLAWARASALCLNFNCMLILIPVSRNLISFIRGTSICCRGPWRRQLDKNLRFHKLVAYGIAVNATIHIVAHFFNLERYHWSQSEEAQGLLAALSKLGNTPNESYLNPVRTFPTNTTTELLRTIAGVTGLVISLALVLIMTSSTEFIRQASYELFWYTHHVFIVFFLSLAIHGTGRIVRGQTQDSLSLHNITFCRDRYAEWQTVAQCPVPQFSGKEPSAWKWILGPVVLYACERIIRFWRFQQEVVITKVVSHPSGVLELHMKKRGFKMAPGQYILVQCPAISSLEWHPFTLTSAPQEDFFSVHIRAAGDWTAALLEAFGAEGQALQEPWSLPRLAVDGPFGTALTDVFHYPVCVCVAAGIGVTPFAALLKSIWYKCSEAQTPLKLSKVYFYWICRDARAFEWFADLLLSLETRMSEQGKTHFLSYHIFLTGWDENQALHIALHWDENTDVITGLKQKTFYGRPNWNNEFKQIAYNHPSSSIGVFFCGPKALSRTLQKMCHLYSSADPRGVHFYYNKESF

[4] = molecular target: T4, NOX5, yeast two-hybrid fusion (method of Luck et al., 2020) (UniProt Q96PH1)
T4 sequence: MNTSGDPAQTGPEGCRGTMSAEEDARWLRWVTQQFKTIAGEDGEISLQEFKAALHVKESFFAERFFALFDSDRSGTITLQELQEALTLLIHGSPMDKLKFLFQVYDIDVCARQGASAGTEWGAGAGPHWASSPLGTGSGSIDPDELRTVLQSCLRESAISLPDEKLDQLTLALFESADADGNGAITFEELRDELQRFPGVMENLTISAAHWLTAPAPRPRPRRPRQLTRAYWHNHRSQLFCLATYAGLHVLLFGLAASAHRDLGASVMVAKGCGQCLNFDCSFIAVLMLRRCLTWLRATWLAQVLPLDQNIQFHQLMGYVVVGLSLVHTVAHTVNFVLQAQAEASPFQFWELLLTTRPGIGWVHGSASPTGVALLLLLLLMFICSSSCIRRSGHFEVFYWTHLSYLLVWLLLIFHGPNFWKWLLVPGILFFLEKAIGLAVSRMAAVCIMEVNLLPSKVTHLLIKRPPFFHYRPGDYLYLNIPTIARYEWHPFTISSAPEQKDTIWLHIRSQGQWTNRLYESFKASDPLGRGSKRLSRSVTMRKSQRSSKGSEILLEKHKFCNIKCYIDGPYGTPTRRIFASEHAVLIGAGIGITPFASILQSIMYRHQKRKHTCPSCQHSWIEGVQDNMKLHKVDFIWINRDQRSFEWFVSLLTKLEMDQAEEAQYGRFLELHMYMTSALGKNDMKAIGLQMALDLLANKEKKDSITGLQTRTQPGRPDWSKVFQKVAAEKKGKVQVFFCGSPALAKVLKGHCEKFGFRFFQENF

binding [1]: no binding | binding [2]: binds | binding [3]: binds | binding [4]: no binding
B1: EROS, yeast two-hybrid fusion (method of Luck et al., 2020) (protein, UniProt Q9BQA9 1-187)
chain: MYLQVETRTSSRLHLKRAPGIRSWSLLVGILSIGLAAAYYSGDSLGWKLFYVTGCLFVAVQNLEDWEEAIFDKSTGKVVLKTFSLYKKLLTLFRAGHDQVVVLLHDVRDVSVEEEKVRYFGKGYMVVLRLATGFSHPLTQSAVMGHRSDVEAIAKLITSFLELHCLESPTELSQSSDSEAGDPASQS
